# Results: patent publication US20250296984A1, “THERAPEUTIC AND DIAGNOSTIC AGENTS AND USES THEREOF” (priority 2022, published 2025)
# Columns and labels:
# [1] = test system: control CHO cells (US28 negative); assay: FACS binding to US28 negative control CHO cells; set-up: species or system Chinese hamster; conditions: secondary antibody background removed
# BSA (Bos taurus) = assay: ELISA, BSA coating (control); type: binding; conditions: ECD1 subclones
Molecule,"Percentage of binding to CHO cells ([1]; Table 7B, (1:5))","absorbance, Coating: BSA (BSA (Bos taurus))","Percentage of binding to CHO cells ([1]; Table 7A, (1:5) (200 μg/ml))"
"2F5B11: mouse IgG1 kappa antibody against US28 ECD1 Peptide-N; VH SEQ ID NO: 233, VL SEQ ID NO: 235 (antibody, V domains shown, Mature form of VH sequence of 2F5B11, without the leader sequence; Mature form of VL sequence of 4H3C3, without the leader sequence) VH: EVQLQESGAELAKPGASVKMSCKASGYTFSSYWIHWIKQRPGQGLEWIGYINPNTAYTEFNQKFMDKATLTADKSSSTAYMQLTSLTSEDSAVYYCARLRSDRTGFAYWGQGTLVTVSA VL: QIVLTQSPSSLAVSVGEKVTMS[about 80 residues not printed]FGAGTKLEIK",0.39%,0.0508,
"4H3C3: mouse IgG1 kappa antibody against US28 ECD1 Peptide-N; VH SEQ ID NO: 187, VL SEQ ID NO: 189 (antibody, V domains shown, Mature form of VH sequence of 4H3C3, without the leader sequence; Mature form of VL sequence of 4H3C3, without the leader sequence) VH: QVQLQQSGAELAKPGASVKMSCKASGYTFTSYWMHWVKQRPGQGLEWIGYINPSTGYAEYNQKFKDKATLTADKSSSTAYMQLSSLTSEDSAVYYCARLRFGSSGFAYWGQGTLVTVSS VL: QIVLTQSPSSLAVSVGEKVTMS[about 80 residues not printed]FGAGTKLEIK",0.31%,0.0164,
13-1C10-1G9: mouse hybridoma subclone antibody against US28 ECD3 Peptide-1 and -2; sequenced (antibody) heavy: EVKLVESGGGLVKPGGSLKLSCAASGFTFSSYAMSWVRQTPEKRLEWVASISSGGSTYYPDSVKGRFTISRDNARNILYLQMSSLRSEDTAMYYCARGGSTMITTGLGFAYWGQGTLVTVSAAKTTPPSVYPLAPGSAAQTNSMVTLGCLVKGYFPEPVTVTWNSGSLSSGVHTFPAVLQSDLYTLSSSVTVPSSTWPSETVTCNVAHPASSTKVDKKIVPRDCGCKPCICTVPEVSSVFIFPPKPKDVLTITLTPKVTCVVVDISKDDPEVQFSWFVDDVEVHTAQTQPREEQFNSTFRSVSELPIMHQDWLNGKEFKCRVNSAAFPAPIEKTISKTKGRPKAPQVYTIPPPKEQMAKDKVSLTCMITDFFPEDITVEWQWNGQPAENYKNTQPIMDTDGSYFIYSKLNVQKSNWEAGNTFTCSVLHEGLHNHHTEKSLSHSPGK light: QIVLTQSPAIMSASPGEKVTMTCSASSSVSYMHWYQQKSGTSPKRWIYDTSKLASGVPARFSGSGSGTSYSLTISSMEAEDAATYYCQQWSSNPPLTFGAGTKLELKRADAAPTVSIFPPSSEQLTSGGASVVCFLNNFYPKDINVKWKIDGSERQNGVLNSWTDQDSKDSTYSMSSTLTLTKDEYERHNSYTCEATHKTSTSPIVKSFNRNEC,,,0.44%
14-4E4-1E8: mouse hybridoma subclone antibody against US28 ECD3 Peptide-1 and -2; sequenced (antibody) heavy: EVKLVESGGDLVKPGGSLKLSCAASGFTFSSYAMSWVRQTPEKRLEWVASISSGGRTYYPDSVKGRFTISRDNARNILYLQMSSLRSEDTAIYYCARGGTRHSYGNGFDYWGQGTTLTVSSAKTTPPSVYPLAPGSAAQTNSMVTLGCLVKGYFPEPVTVTWNSGSLSSGVHTFPAVLQSDLYTLSSSVTVPSSTWPSETVTCNVAHPASSTKVDKKIVPRDCGCKPCICTVPEVSSVFIFPPKPKDVLTITLTPKVTCVVVDISKDDPEVQFSWFVDDVEVHTAQTQPREEQFNSTFRSVSELPIMHQDWLNGKEFKCRVNSAAFPAPIEKTISKTKGRPKAPQVYTIPPPKEQMAKDKVSLTCMITDFFPEDITVEWQWNGQPAENYKNTQPIMDTDGSYFIYSKLNVQKSNWEAGNTFTCSVLHEGLHNHHTEKSLSHSPGK light: QIVLSQSPTIMSASPGEKVTMTCSASSSVSYMHWYQQKSGTSPKRWIYDSSKLASGVPARFSGSGSGTSYSLTISSMEAEDAATYYCQQWTSNPPITFGAGTKLELKRADAAPTVSIFPPSSEQLTSGGASVVCFLNNFYPKDINVKWKIDGSERQNGVLNSWTDQDSKDSTYSMSSTLTLTKDEYERHNSYTCEATHKTSTSPIVKSFNRNEC,,,0.03%
